# Laboratory results taken from the supplement of paper PMC9446081.
# Screen size: about 39,000 compounds; about 220 (0.56%) showed activity. The list shows a part of the results.
# System: Escherichia coli K-12 BW25113
# Assay: relative growth (OD600 normalised to plate interquartile mean) (fraction); higher = less growth inhibition, active = 0.2 or less
# Settings: 50 µM; LB; incubation time: overnight (16-24 h)
# 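Also: static incubation at 37 °C against the wild-type strain, values averaged over two biological replicates.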
row,Structure (SMILES),relative growth
1,C[C@@H]1CCCCO[C@@H](CN(C)S(=O)(=O)c2ccccc2)[C@H](C)CN([C@@H](C)CO)C(=O)c2cc(NC(=O)C3CCCCC3)ccc2O1,inactive: 1.01
2,C[C@@H]1CN([C@@H](C)CO)C(=O)c2c(c3ccccc3n2C)-c2ccccc2CO[C@H]1CN(C)C(=O)c1ccc(F)cc1,inactive: 1.02
3,C[C@H](CO)N1C[C@H](C)[C@@H](CN(C)Cc2ccccc2)OCCCC[C@H](C)Oc2ccc(NC(=O)NC3CCCCC3)cc2C1=O,inactive: 0.991
4,CC(=N)NCCSCC[C@H](N)C(=O)O,inactive: 0.997
5,COc1ccc(S(=O)(=O)Nc2ccc3c(c2)C(=O)N([C@@H](C)CO)C[C@H](C)[C@@H](CN(C)C(=O)Nc2c(C)noc2C)OCCCC[C@@H](C)O3)cc1,inactive: 1
6,Cc1ccc(S(=O)(=O)N(C)C[C@@H]2Oc3ccc(NS(C)(=O)=O)cc3C(=O)N([C@H](C)CO)C[C@@H]2C)cc1,inactive: 1.03
7,C[C@H](CO)N1C[C@H](C)[C@H](CN(C)C(=O)c2cccnc2)Oc2cc(-c3cccc(C#N)c3)ccc2S1(=O)=O,inactive: 1.01
8,NC1(Cc2ccc(Cl)cc2)CCN(c2ncnc3[nH]ccc23)CC1,inactive: 0.933
9,NC[C@H]1CCCN(C(=O)Nc2ccc(Oc3ccccc3)cc2)C1,inactive: 1.03
10,C[C@@H]1CCCCO[C@H](CN(C)Cc2ccc(C(F)(F)F)cc2)[C@@H](C)CN([C@H](C)CO)C(=O)c2cc(NS(=O)(=O)c3cn(C)cn3)ccc2O1,inactive: 1.01
11,COCC(=O)N1C[C@H](C)[C@H](OC)CN(C)C(=O)c2cc(NC(=O)c3ccc(OC)cc3)ccc2OC[C@@H]1C,inactive: 0.997
12,C[C@@H]1CN([C@@H](C)CO)C(=O)c2cc(NC(=O)Nc3ccc(C(F)(F)F)cc3)ccc2O[C@@H](C)CCCCO[C@H]1CN(C)Cc1ccc(C(F)(F)F)cc1,inactive: 1.01
13,O=S(=O)(c1cccc(OC(F)F)c1)N1[C@@H]2CC[C@@H](C2)[C@H]1c1nc2cccc(OCc3ccccc3)c2[nH]1,inactive: 0.981
14,C[C@H](CO)N1C[C@H](C)[C@H](CN(C)Cc2ccccc2)Oc2ccc(NC(=O)CCN3CCOCC3)cc2C1=O,inactive: 1.01
15,Cc1noc(C)c1NC(=O)Nc1ccc2c(c1)C(=O)N([C@@H](C)CO)C[C@H](C)[C@@H](CN(C)S(=O)(=O)c1cn(C)cn1)O2,inactive: 1.01
16,C[C@@H]1CCCCO[C@@H](CN(C)Cc2ccc(C(F)(F)F)cc2)[C@H](C)CN([C@H](C)CO)C(=O)c2cc(NC(=O)C3CCCCC3)ccc2O1,inactive: 1.03
17,C[C@@H]1CN([C@H](C)CO)C(=O)c2cc(NC(=O)Nc3cccc4ccccc34)ccc2O[C@H]1CN(C)C(=O)Nc1cccc2ccccc12,inactive: 0.988
18,Cc1ccc(S(=O)(=O)N(C)C[C@@H]2Oc3ccc(NS(=O)(=O)c4cn(C)cn4)cc3CC(=O)N([C@H](C)CO)C[C@@H]2C)cc1,inactive: 1.03
19,Cc1noc(C)c1S(=O)(=O)N(C)C[C@H]1OCCCC[C@@H](C)Oc2ccc(NS(C)(=O)=O)cc2C(=O)N([C@@H](C)CO)C[C@H]1C,inactive: 1
20,Cc1noc(C)c1NC(=O)Nc1ccc2c(c1)C(=O)N([C@H](C)CO)C[C@H](C)[C@H](CN(C)S(=O)(=O)c1ccccc1)OCCCC[C@H](C)O2,inactive: 0.973

row,Structure (SMILES),relative growth
1,C[C@@H]1CCCCO[C@@H](CN(C)Cc2ccc(Cl)c(Cl)c2)[C@@H](C)CN([C@@H](C)CO)C(=O)c2cc(NS(=O)(=O)c3cccs3)ccc2O1,inactive: 1.04
2,O=C1c2ccccc2[C@](Cc2ccccc2I)(C(=O)O)[C@H](c2ccc(CO)cc2)N1C1CCCCC1,inactive: 1.02
3,Cc1noc(C)c1NC(=O)Nc1ccc2c(c1)C(=O)N([C@@H](C)CO)C[C@@H](C)[C@H](CN(C)S(=O)(=O)c1ccc(F)cc1)OCCCC[C@H](C)O2,inactive: 1.03
4,O=C(C[C@@H]1CC[C@@H]2[C@H](COC[C@H](O)CN2S(=O)(=O)c2ccc(Cl)cc2)O1)N[C@@H]1CCN(Cc2ccccc2)C1,inactive: 0.985
5,CCCN(C)C[C@@H]1OCCCC[C@@H](C)Oc2ccc(NC(=O)Cc3ccccc3)cc2C(=O)N([C@H](C)CO)C[C@@H]1C,inactive: 0.977
6,C[C@H](CO)N1C[C@H](C)[C@@H](CN(C)C(=O)CN(C)C)Oc2ncc(-c3ccc(C(=O)N(C)C)cc3)cc2C1=O,inactive: 0.975
7,C=CCC[C@H](Cc1ccc(F)cc1)C(=O)O[C@H](CNC(=O)[C@@H](CC=C)CC(=O)N[C@H](CO)Cc1ccccc1)c1ccccc1,inactive: 0.993
8,N#C/C(=N\O)C(=O)c1ccco1,inactive: 1
9,C[C@H](CO)N1C[C@H](C)[C@@H](CN(C)C(=O)c2cnccn2)Oc2cc(C3=CCCC3)ccc2S1(=O)=O,inactive: 0.99
10,C[C@@H]1CN([C@H](C)CO)C(=O)c2cc(NS(=O)(=O)c3cccs3)ccc2O[C@H]1CN(C)CC1CC1,inactive: 0.986
11,CCN(CC)CCCC(C)Nc1c2ccc(Cl)cc2nc2ccc(OC)cc12.Cl.Cl (centres undefined),inactive: 1.18
12,CO[C@H]1CN(C)C(=O)c2ccc(NC(=O)C3CCOCC3)cc2OC[C@@H](C)N(Cc2cccnc2)C[C@H]1C,inactive: 1.02
13,Cc1noc(C)c1NC(=O)Nc1ccc2c(c1)CC(=O)N([C@@H](C)CO)C[C@@H](C)[C@H](CN(C)S(=O)(=O)c1ccccc1)O2,inactive: 0.986
14,COc1ccc(S(=O)(=O)Nc2ccc3c(c2)C(=O)N([C@@H](C)CO)C[C@@H](C)[C@@H](CN(C)Cc2ccccc2)OCCCC[C@@H](C)O3)cc1,inactive: 1.04
15,C[C@H](CO)N1C[C@H](C)[C@@H](CN(C)C(=O)Nc2cccc3ccccc23)Oc2ccc(NS(=O)(=O)c3ccccc3)cc2C1=O,inactive: 0.998
16,O=C(C1=C[C@H](c2coc3ccccc3c2=O)C[C@H](OCCCCO)O1)N1CCOCCOCCOCCOCC1,inactive: 0.993
17,C[C@@H]1CN([C@@H](C)CO)C(=O)c2cc(NS(=O)(=O)c3cn(C)cn3)ccc2O[C@@H]1CN(C)S(=O)(=O)c1cccs1,inactive: 1.03
18,C[C@H](CO)N1C[C@H](C)[C@H](CN(C)Cc2cccc(C(F)(F)F)c2)Oc2ncc(C#CCN(C)C)cc2C1=O,inactive: 0.962
19,COc1ccc(NC(=O)Nc2ccc3c(c2)CC(=O)N([C@@H](C)CO)C[C@@H](C)[C@@H](CN(C)S(C)(=O)=O)O3)cc1,inactive: 1
20,Cc1ccc(OCc2nnn(CC(=O)NS(=O)(=O)c3c(C)nn(C)c3Cl)c2-c2ccccc2)cc1,inactive: 0.987

row,Structure (SMILES),relative growth
1,COc1ccc(CN(C)C[C@@H]2OCCCC[C@H](C)Oc3ccc(NC(=O)c4ccccc4)cc3C(=O)N([C@@H](C)CO)C[C@H]2C)cc1,inactive: 1.03
2,COc1ccc(NC(=O)Nc2ccc3c(c2)C(=O)N([C@@H](C)CO)C[C@H](C)[C@H](CN(C)Cc2ccccc2)OCCCC[C@H](C)O3)cc1,inactive: 0.99
3,C[C@]1(C(=O)NCc2ccccc2)c2ccccc2C(=O)N(Cc2ccccc2)[C@H]1c1ccc(COC(=O)NCCCCCC(=O)NO)cc1,inactive: 0.981
4,CN(C)CC(=O)N1[C@@H]2Cn3c(ccc(C4=CCCC4)c3=O)[C@H]1[C@@H](C(=O)NCC1CC1)[C@@H]2CO,inactive: 0.998
5,C[C@@H]1CCCCO[C@H](CN(C)Cc2ccc(C(F)(F)F)cc2)[C@H](C)CN([C@@H](C)CO)C(=O)c2cc(NC(=O)Nc3cccc4ccccc34)ccc2O1,inactive: 0.98
6,C[C@@H]1CN([C@H](C)CO)C(=O)c2cccc(NS(=O)(=O)c3ccccc3)c2O[C@@H]1CN(C)C(=O)Nc1cccc2ccccc12,inactive: 0.956
7,Cc1cccnc1[C@@H](NC(=O)C1CCN(CCOc2ccc(Cl)cc2Cl)CC1)c1ccc(F)cc1,inactive: 0.897
8,C[C@@H]1CN([C@H](C)CO)C(=O)c2cc(NS(=O)(=O)c3ccc(F)cc3)ccc2O[C@@H]1CN(C)Cc1ccc(Cl)c(Cl)c1,inactive: 1.03
9,CCC(=O)OC1(C(=O)CCl)C(C)CC2C3CCC4=CC(=O)C=CC4(C)C3(F)C(O)CC21C (centres undefined),inactive: 1.02
10,CC(C)NC(=O)N(C)C[C@@H]1Oc2ncc(-c3ccc(C(=O)N(C)C)cc3)cc2C(=O)N([C@@H](C)CO)C[C@@H]1C,inactive: 0.995
11,C[C@@H]1CCCCO[C@@H](CN(C)CC2CCCCC2)[C@@H](C)CN([C@@H](C)CO)C(=O)c2cc(NS(=O)(=O)c3cccs3)ccc2O1,inactive: 0.911
12,Cc1ccc(-c2ccc3c(c2)O[C@H](CN(C)C(=O)NC(C)C)[C@@H](C)CN([C@@H](C)CO)S3(=O)=O)cc1,inactive: 1
13,O=C(NO)c1cccc(C(=O)N/N=C/[C@@H](O)[C@H](O)[C@H](O)CO)c1,inactive: 1.04
14,CNC[C@@H](O)c1ccc(O)c(O)c1,inactive: 1
15,C[C@@H]1CCCCO[C@@H](CN(C)C(=O)Nc2ccccc2)[C@H](C)CN([C@H](C)CO)C(=O)c2cc(NS(=O)(=O)c3ccc(Cl)cc3)ccc2O1,inactive: 1.01
16,CC(C)(C)NC(=O)C[n+]1cccc(/C=N/O)c1,inactive: 1.03
17,C[C@H](CO)N1C[C@H](C)[C@H](CN(C)CC2CC2)OCCCC[C@H](C)Oc2ccc(NC(=O)Nc3ccccc3)cc2C1=O,inactive: 0.993
18,COc1ccc(S(=O)(=O)N(C)C[C@H]2Oc3ccc(NS(=O)(=O)c4cn(C)cn4)cc3CC(=O)N([C@H](C)CO)C[C@H]2C)cc1,inactive: 0.998
19,C[C@@H]1CN([C@H](C)CO)C(=O)c2cccc(NS(=O)(=O)c3ccc(Cl)cc3)c2O[C@H]1CN(C)Cc1ccc(C(=O)Nc2ccccc2N)cc1,inactive: 1.05
